This sample is rich in variants without activity.
B1: TPR 5TU (parent)
chain: GGAUCUUCUCGAUCUAACAAAAAAGACAAAUCUGCCACAAAGCUUGAGAGCAUCUUCGGAUGCAGAGGCGGCAGCCUUCGGUGGCGCGAUAGCGCCAACGUUCUCAACUAUGACACGCAAAACGCGUGCUCCGUUGAAUGGAGUUUAUCAUG

Variants of: B1
Assay: polymerase ribozyme fitness, log enrichment relative to wild type (log ratio); higher = more active; in vitro selection for triplet polymerase activity
How it was run: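 For each subunit of a heterodimeric triplet polymerase ribozyme, a mutant library was built by PCR and transcribed, then taken through a single in vitro selection round in triplicate. Selection involved annealing to a biotinylated primer, the partner subunit and triplets, incubation frozen at −7 °C, gel excision of extended constructs, capture on streptavidin beads and RT-PCR. Genotypes were retained after Illumina sequencing of inputs and outputs only with ≥10 input reads and ≥1 read in each output. Fitness is defined as the logarithm of a genotype's enrichment relative to wild-type enrichment, using inverse-variance-weighted averages across replicates, with the logarithm taken to base 2.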

| Variant | polymerase ribozyme fitness (log ratio) |
| --- | --- |
| G25U G65C U127G U135A G140U | ≤ -4.2 |
| G25U G71A G92A A97G C103G G141U | ≤ -4.2 |
| G25U G84U G94A A121U A147G U148G | ≤ -4.2 |
| G25U G88C A98G G100C A150C | ≤ -4.2 |
| G25U G100U | ≤ -4.2 |
| G25U U31C G84U C108A | ≤ -4.2 |
| G25U U33C C35A U55A C96G C99U A106G A150U | ≤ -4.2 |
| G25U U33G G86A A107C A110U G141U U145C | ≤ -4.2 |
| G25U U44A U55A C93U G126U | ≤ -4.2 |
| G25U U44A U55A U139A U144A | ≤ -4.2 |
| G25U U45A G48U G74A C93U C114U | ≤ -4.2 |
| G25U U45G U56A G86A U148G | ≤ -4.2 |
| G25U U53A G81A A91U C118A A137U | ≤ -4.2 |
| G25U U55G A73G A120C C123U | -3.39 |
| G25U U61A C85U U148A | ≤ -4.2 |
| G25U U61A G84U C85A A89U C93A C103A G141U | ≤ -4.2 |
| G25U U90G | ≤ -4.2 |
| A26C A28U C57U G62A G67C A73G C93G U101G C123A | ≤ -4.2 |
| A26C A29U G126U A138C | ≤ -4.2 |
| A26C A30G G46C C51A G86A U127A | ≤ -4.2 |
| A26C A30U C96U U102C C103U U111G A113C A115U C125G | ≤ -4.2 |

| Variant | polymerase ribozyme fitness (log ratio) |
| --- | --- |
| A26C A37C U44G A52U A73U G80A G84U C95G | ≤ -4.2 |
| A26C A37U C79U A106U G143C U146A U148C | ≤ -4.2 |
| A26C A39C A49U U55G U61A A66C G67A A73U G84U | ≤ -4.2 |
| A26C A39G G46C U55G C57U C99G | ≤ -4.2 |
| A26C A39U C51U C54A U61G | ≤ -4.2 |
| A26C A39U G83A G94C G136U G140U C149A | ≤ -4.2 |
| A26C A41G A47C C69G G83A C93U G124U | ≤ -4.2 |
| A26C A41G G42C U101A G152U | ≤ -4.2 |
| A26C A41U C43A G94C U101C | ≤ -4.2 |
| A26C A47G G50U G58A G59U C85A C118U | ≤ -4.2 |
| A26C A49G G58U U77G G136C U146G | ≤ -4.2 |
| A26C A52C C85U G117A A142G | -3.88 |
| A26C A52G G58U U78A A97U | ≤ -4.2 |
| A26C A66U U78G G92A | ≤ -4.2 |
| A26C A107U | ≤ -4.2 |
| A26C A110G | ≤ -4.2 |
| A26C C27A U55G | ≤ -4.2 |
| A26C C27G G34A U55A | ≤ -4.2 |
| A26C C27G U33G U44A U45A U55A C85U C114A G133C | ≤ -4.2 |
| A26C C27U A37G A60U C69G C85A U102C C125U | ≤ -4.2 |
| A26C C27U A64U C75A C79G A147G C149G | ≤ -4.2 |

| Variant | polymerase ribozyme fitness (log ratio) |
| --- | --- |
| A26C C32G G34C U44A A107G C131U U139C U145C | ≤ -4.2 |
| A26C C35A G42C U56A G58U U61A G84A A122G C125A | ≤ -4.2 |
| A26C C35U A40G G74A C75U | ≤ -4.2 |
| A26C C35U C43U C87G | ≤ -4.2 |
| A26C C36G C116A U148G | ≤ -4.2 |
| A26C C38A A39U | ≤ -4.2 |
| A26C C38U C85U C149A | ≤ -4.2 |
| A26C C38U C118G U130G | ≤ -4.2 |
| A26C C51U A66G U77A C149G | ≤ -4.2 |
| A26C C54A C76U G80C G84A | ≤ -4.2 |
| A26C C54G A121G | -2.79 |
| A26C C57G U77G | ≤ -4.2 |
| A26C C57U C85G G92U | ≤ -4.2 |
| A26C C57U C99U A138G | ≤ -4.2 |
| A26C C72A C116U U139C | ≤ -4.2 |
| A26C C75U G92C G141C | ≤ -4.2 |
| A26C C85A A89G C96U U135C A137U | ≤ -4.2 |
| A26C C87A U101G | ≤ -4.2 |
| A26C C87A U104G C105U C125G G141A U148G | ≤ -4.2 |
| A26C C87G A98C | ≤ -4.2 |
| A26C C87G C116A | ≤ -4.2 |

| Variant | polymerase ribozyme fitness (log ratio) |
| --- | --- |
| A26C C87U | -1.69 |
| A26C C87U A122G A142G | -3.94 |
| A26C G42U C72U G94A A98C G100A C125A U139G | ≤ -4.2 |
| A26C G46C C87G C149A | ≤ -4.2 |
| A26C G48C A52C C93U U109C A110U A115U A150U | ≤ -4.2 |
| A26C G50C C51U A52G C54G U56A G58A C99G | ≤ -4.2 |
| A26C G50U A120U U135C G136U U144G | ≤ -4.2 |
| A26C G68A C75A G84A C103A C105U | ≤ -4.2 |
| A26C G68C A122C U135C U139G U145G | ≤ -4.2 |
| A26C G71U G84U | ≤ -4.2 |
| A26C G83C A97U C123U G126C U130A | ≤ -4.2 |
| A26C G86A C99U G141C | -3.84 |
| A26C U31G G42A U61G G71A G84A A97U G100A | ≤ -4.2 |
| A26C U33C A98G | ≤ -4.2 |
| A26C U44C U61G C93U U130A C132G | ≤ -4.2 |
| A26C U45A C116G G124C | ≤ -4.2 |
| A26C U53A C85U C116A U151A | ≤ -4.2 |
| A26C U53A G58A | -2.74 |
| A26C U53G G88C C96U C118A | ≤ -4.2 |
| A26C U55A G70A C76G C95U C105G C114A | ≤ -4.2 |

From the RNAGym collection of RNA variant scans (doi:10.1073/pnas.2313332121)
